Where a chain is given by its changes, count along the chain named.
What was measured:
Type in all cases: cell-based
[1] = target: T1, human CXCL8 point mutant A35P (Homo sapiens, UniProt P10145, A62P); assay: U937-huCXCR2 FLIPR neutralization of human CXCL8 A35P; conditions: human CXCL8 A35P 8 nM
T1 construct: His-SUMO (N, cleaved yes); made in house; host or cells: E. coli
T1 sequence (P10145 28-99 A62P): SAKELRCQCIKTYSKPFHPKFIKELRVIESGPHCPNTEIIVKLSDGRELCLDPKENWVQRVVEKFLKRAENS
Procedure: Wild type and mutant human CXCL8 are tested for biologic activity and for neutralization by Antibody 1 using the U937-huCXCR2 assay. U937-huCXCR2 is a monocytic cell line transduced with retrovirus for expression of human CXCR2. A description of the U937-huCXCR2 assay is found below under Neutralizing Assays.
Antibody 1 is serially diluted in Assay Buffer containing 0.2% BSA. Antibody concentrations are 3 times the final assay concentration (final concentrations range from 10 to 0.0195 μg/ml). Stock solutions of wild type human CXCL8 and CXCL8 mutants are prepared in Assay Buffer+0.2% BSA at 240 nM (30× the final assay concentration of 8 nM). 20 μL of ligand is mixed with 180 μL of Antibody 1 in wells of v-bottom 96-well polypropylene plates. Ligand and antibody are incubated at room temperature for 30 minutes. A cell plate and a ligand-antibody plate are loaded into a Fluorescent Imaging £late Reader (FLIPR-3, Molecular Devices) programmed to transfer 50 μL of ligand-antibody to wells of the cell plate. Fluorescence is recorded at 1 second intervals for 90 seconds. The change in fluorescence (DRFU) is calculated from images 10 to 90. DRFU versus log (antibody concentration) is plotted and IC50 values are determined by nonlinear regression using Graph Pad Prism. Assays are performed in triplicate over three assay plates.

[2] = target: T2, human CXCL8 (72 amino acid form) (Homo sapiens, UniProt P10145); assay: FLIPR neutralization using HMEC cells expressing human CXCR2, CXCL8 (72); conditions: CXCL8 (72) 10 nM; HMEC-huCXCR2 FLIPR
T2 construct: Both the 72 amino acid and 77 amino acid forms of CXCL8 were used
T2 sequence (P10145 28-99): T1 sequence (P10145 28-99 A62P) with P35A
Excerpt: (§1) Since all of the ELR+ CXC chemokines can bind CXCR2 receptor, cells expressing CXCR2 were selected for in vitro studies. HMEC-huCXCR2 is an immortalized human endothelial cell line transduced with retrovirus for expression of human CXCR2 receptor. HMEC cells expressing human CXCR2 are able to induce intracellular Ca^2+ influx in response to human, cynomolgus monkey, rat, and mouse ELR+CXC chemokines. Intracellular Ca^2+ influx can be detected by a Fluorescent Imagine £late Reader (FLIPR). Chemokine neutralization should therefore also neutralize intracellular Ca^2+ influx induced by these chemokines.
(§2) HMEC-huCXCR2 is maintained in MCDB 31 medium supplemented with 10% fetal bovine serum, 2× GlutaMax, 1× non-essential amino acids, 1 μg/mL hydrocortisone, 10 ng/mL human Epidermal Growth Factor, and 0.4 μg/mL puromycin at 37° C. in 5% CO2. […] A cell plate and a ligand-antibody plate are loaded into a Fluorescent Imagine Plate Reader (FLIPR-3, Molecular Devices) programmed to transfer 50 μL of ligand-antibody to wells of the cell plate. Fluorescence is recorded every second for 90 seconds. The change in fluorescence (DRFU) is calculated from images 10 to 90. DRFU versus log (antibody concentration) is plotted and IC50 values are determined by nonlinear regression using Graph Pad Prism. […] Data are expressed as the mean of replicates. […]

[3] = target: T3, human CXCL6 (Homo sapiens, UniProt P80162); assay: FLIPR neutralization using HMEC cells expressing human CXCR2, CXCL6; conditions: CXCL6 10 nM; HMEC-huCXCR2 FLIPR
T3 sequence (P80162 40-114 limits assumed): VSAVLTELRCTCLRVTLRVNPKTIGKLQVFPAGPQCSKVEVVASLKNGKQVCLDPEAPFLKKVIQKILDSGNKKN
Excerpt: as §1, §2

U937 FLIPR neutralization IC50 [1]: No neutralization | IC50 [2]: 0.951 (±0.416) ug/mL | IC50 [3]: 1.122 (±0.523) ug/mL
B1: Antibody 1: antibody with heavy chain SEQ ID NO: 1 and light chain SEQ ID NO: 3, expressed in NSO cells (antibody)
heavy: QVQLVQSGAEVKKPGASVKVSCKASGYEFTSYWIHWVRQAPGQGLEWMGNISPNSGSANYNEKFKSRVTMTRDTSTSTVYMELSSLRSEDTAVYYCAREGPYSYYPSREYYGSDLWGQGTLVTVSSASTKGPSVFPLAPCSRSTSESTAALGCLVKDYFPEPVTVSWNSGALTSGVHTFPAVLQSSGLYSLSSVVTVPSSSLGTKTYTCNVDHKPSNTKVDKRV[human IgG4 Fc with S228P (EU numbers) not spelt out]
light: EIVLTQSPATLSLSPGERATLSCRASQSISNNLHWYQQKPGQAPRLLIYYTSRSVSGIPARFSGSGSGTDFTLTISSLEPEDFAVYYCGQNNEWPEVFGGGTKVEIKRTVAAPSVFIFPPSDEQLKSGTASVVCLLNNFYPREAKVQWKVDNALQSGNSQESVTEQDSKDSTYSLSSTLTLSKADYEKHKVYACEVTHQGLSSPVTKSFNRGEC
